# Laboratory results as given in the supplement of paper PMC4967469.
# IC50 is the fitted dose that halves viability relative to control wells, and lower means more sensitive; fits outside the tested doses are given as limits. AUC, from the same fit, is the share of area under the viability curve across the 256-fold dose range: 1 means no effect, lower means more sensitive. For some assays here: Any top dose called inferred was derived from the fitted curves, not read from the paper. For some assays here: Drugs with an entry number were screened twice under separate entries, and the two screens often disagree.
# Key:
# Test in all cases: Viability of human cancer cell lines after 72 h of drug (GDSC screen)
# BMS-708163 = compound: NC(=O)[C@@H](CCC(F)(F)F)N(Cc1ccc(-c2ncon2)cc1F)S(=O)(=O)c1ccc(Cl)cc1 [BMS-708163]; details: top dose 5 µM; screen: GDSC drug entry 1072; top dose inferred
# Method: (§1)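 Human cancer cell lines in 384-well plates, medium with 10% serum, drug for 72 h over a 256-fold dose range (nine 2-fold or five 4-fold steps up to the top dose). Adherent lines were fixed and stained with the nucleic acid dye Syto60, suspension lines read with resazurin; signal relative to control wells, capped at 0 and 100%. One two-parameter sigmoid per drug and line, fitted in a mixed model over all curves with the slope shared within a line.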
# Parthenolide = compound: C=C1C(=O)O[C@H]2[C@H]1CC/C(C)=C/CC[C@@]1(C)O[C@@H]21 [Parthenolide]; details: top dose 5 µM
# Method: as §1
# KIN001-135 = compound: COc1cc2ncn(-c3cc(OCc4ccccc4S(C)(=O)=O)c(C#N)s3)c2cc1OC [KIN001-135]; details: top dose 5 µM; top dose inferred
# Method: as §1
# PAC-1 = compound: C=CCc1cccc(/C=N/NC(=O)CN2CCN(Cc3ccccc3)CC2)c1O [PAC-1]; details: top dose 2.56 µM
# Method: as §1
Cell Line,AUC (BMS-708163),IC50 (BMS-708163) [µM],AUC (Parthenolide),IC50 (Parthenolide) [µM],AUC (KIN001-135),IC50 (KIN001-135) [µM],AUC (PAC-1),IC50 (PAC-1) [µM]
"NCI-H1092 (small cell lung carcinoma, suspension)",0.989,> 5,0.968,> 5,0.97,> 5,0.975,> 2.56
"DMS-114 (small cell lung carcinoma, adherent)",0.984,> 5,0.985,> 5,0.985,> 5,0.977,> 2.56
"MZ7-mel (melanoma, adherent)",0.985,> 5,0.951,> 5,0.986,> 5,0.848,2
"MDST8 (large intestine, adherent)",0.987,> 5,0.984,> 5,0.985,> 5,0.975,> 2.56
"NB1 (neuroblastoma, semi-adherent)",0.981,> 5,0.937,> 5,0.934,> 5,0.931,> 2.56
"ES8 (Ewing sarcoma, adherent)",0.987,> 5,0.948,> 5,0.987,> 5,0.984,> 2.56
"AMO-1 (haematopoietic neoplasm, suspension)",0.99,> 5,0.99,> 5,0.991,> 5,0.835,1.36
"KARPAS-45 (lymphoblastic leukaemia, suspension)",0.977,> 5,0.974,> 5,0.991,> 5,0.844,1.39
"TGBC1TKB (biliary tract, adherent)",0.989,> 5,0.989,> 5,0.989,> 5,0.96,> 2.56
"COR-L95 (small cell lung carcinoma, adherent)",0.987,> 5,0.92,> 5,0.986,> 5,0.967,> 2.56
"KMOE-2 (acute myeloid leukaemia, suspension)",0.99,> 5,0.971,> 5,0.99,> 5,0.955,> 2.56
"ATN-1 (T-cell lymphoblastic leukaemia, suspension)",0.977,> 5,0.971,> 5,0.981,> 5,0.97,> 2.56
"EJM (lymphoid neoplasm, semi-adherent)",0.992,> 5,0.989,> 5,0.991,> 5,0.991,> 2.56
"EW-24 (Ewing sarcoma, semi-adherent)",0.987,> 5,0.991,> 5,0.992,> 5,0.981,> 2.56
"A101D (melanoma, adherent)",0.968,> 5,0.912,> 5,0.975,> 5,0.868,> 2.56
"NB5 (neuroblastoma, adherent)",0.919,> 5,0.98,> 5,0.973,> 5,0.955,> 2.56
"GDM-1 (acute myeloid leukaemia, suspension)",0.987,> 5,0.971,> 5,0.987,> 5,0.871,2.23
"SIMA (neuroblastoma, adherent)",0.938,> 5,0.974,> 5,0.955,> 5,0.845,2.22
"WSU-DLCL2 (B-cell lymphoma, suspension)",0.989,> 5,0.993,> 5,0.991,> 5,0.992,> 2.56
"NCI-H2141 (small cell lung carcinoma, suspension)",0.989,> 5,0.99,> 5,0.979,> 5,0.97,> 2.56

Cell Line,AUC (BMS-708163),IC50 (BMS-708163) [µM],AUC (Parthenolide),IC50 (Parthenolide) [µM],AUC (KIN001-135),IC50 (KIN001-135) [µM],AUC (PAC-1),IC50 (PAC-1) [µM]
"JVM-2 (lymphoid neoplasm, suspension)",0.977,> 5,0.98,> 5,0.976,> 5,0.973,> 2.56
"NCI-H1836 (small cell lung carcinoma, suspension)",0.984,> 5,0.988,> 5,0.986,> 5,0.983,> 2.56
"KMS-12-BM (myeloma, suspension)",0.984,> 5,0.988,> 5,0.991,> 5,0.905,2.39
"NCI-H187 (small cell lung carcinoma, suspension)",0.988,> 5,0.981,> 5,0.955,> 5,0.986,> 2.56
"WIL2-NS (lymphoid neoplasm, suspension)",0.992,> 5,0.827,2.33,0.986,> 5,0.805,1.01
"ME-1 (acute myeloid leukaemia, suspension)",0.955,> 5,0.973,> 5,0.982,> 5,0.772,1.06
"NCI-SNU-16 (stomach, suspension)",0.985,> 5,0.969,> 5,0.965,> 5,0.989,> 2.56
"NCI-H1395 (lung adenocarcinoma, adherent)",0.937,> 5,0.973,> 5,0.947,> 5,0.965,> 2.56
"NCI-H64 (small cell lung carcinoma, suspension)",0.992,> 5,0.979,> 5,0.996,> 5,0.968,> 2.56
"L-428 (Hodgkin lymphoma, suspension)",0.993,> 5,0.99,> 5,0.993,> 5,0.785,0.96
"MONO-MAC-6 (acute myeloid leukaemia, suspension)",0.983,> 5,0.945,> 5,0.978,> 5,0.927,> 2.56
"Farage (B-cell lymphoma, suspension)",0.968,> 5,0.872,3.36,0.993,> 5,0.882,1.87
"KURAMOCHI (ovary, adherent)",0.936,> 5,0.977,> 5,0.983,> 5,0.909,> 2.56
"NCI-H322M (lung adenocarcinoma, suspension)",0.984,> 5,0.983,> 5,0.98,> 5,0.985,> 2.56
"AM-38 (glioma, semi-adherent)",0.984,> 5,0.976,> 5,0.988,> 5,0.963,> 2.56
"D-542MG (glioma, adherent)",0.984,> 5,0.94,> 5,0.97,> 5,0.877,> 2.56
"NCI-H1648 (lung adenocarcinoma, adherent)",0.782,2.23,0.98,> 5,0.967,> 5,0.984,> 2.56
"KELLY (neuroblastoma, adherent)",0.979,> 5,0.987,> 5,0.987,> 5,0.962,> 2.56
"WSU-NHL (lymphoid neoplasm, suspension)",0.954,> 5,0.95,> 5,0.972,> 5,0.859,1.72
"NCI-SNU-5 (stomach, suspension)",0.986,> 5,0.98,> 5,0.983,> 5,0.987,> 2.56

Cell Line,AUC (BMS-708163),IC50 (BMS-708163) [µM],AUC (Parthenolide),IC50 (Parthenolide) [µM],AUC (KIN001-135),IC50 (KIN001-135) [µM],AUC (PAC-1),IC50 (PAC-1) [µM]
"NTERA-2 cl.D1 (testis, adherent)",0.984,> 5,0.962,> 5,0.985,> 5,0.879,> 2.56
"NCI-H1694 (small cell lung carcinoma, suspension)",0.989,> 5,0.969,> 5,0.989,> 5,0.982,> 2.56
"Becker (glioma, adherent)",0.979,> 5,0.972,> 5,0.984,> 5,0.984,> 2.56
"COLO-320-HSR (large intestine, suspension)",0.984,> 5,0.913,> 5,0.991,> 5,0.949,> 2.56
"GR-ST (lymphoblastic leukaemia, suspension)",0.981,> 5,0.97,> 5,0.968,> 5,0.838,2.27
"LU-134-A (small cell lung carcinoma, suspension)",0.987,> 5,0.95,> 5,0.986,> 5,0.862,2.43
"TK10 (kidney, adherent)",0.959,> 5,0.876,> 5,0.975,> 5,0.901,> 2.56
"TE-8 (oesophagus, adherent)",0.914,> 5,0.985,> 5,0.985,> 5,0.969,> 2.56
"NB14 (neuroblastoma, adherent)",0.987,> 5,0.873,4.35,0.987,> 5,0.908,> 2.56
"A498 (kidney, adherent)",0.979,> 5,0.975,> 5,0.979,> 5,0.957,> 2.56
"GI-1 (glioma, adherent)",0.978,> 5,0.93,> 5,0.982,> 5,0.983,> 2.56
"ES5 (Ewing sarcoma, adherent)",0.903,> 5,0.98,> 5,0.982,> 5,0.841,2.17
"YT (lymphoid neoplasm, suspension)",0.94,> 5,0.991,> 5,0.992,> 5,0.89,2.17
"OPM-2 (myeloma, suspension)",0.993,> 5,0.947,> 5,0.977,> 5,0.969,> 2.56
"OCI-M1 (acute myeloid leukaemia, suspension)",0.992,> 5,0.944,> 5,0.995,> 5,0.994,> 2.56
"RKO (large intestine, adherent)",0.984,> 5,0.849,3.33,0.985,> 5,0.985,> 2.56
"ES1 (Ewing sarcoma, adherent)",0.953,> 5,0.957,> 5,0.982,> 5,0.833,1.61
"MZ1-PC (pancreas, adherent)",0.975,> 5,0.975,> 5,0.979,> 5,0.885,> 2.56
